Paper PMC8508763
No constants are given. Whether binding was seen depends on the method and setting. For some assays here: In cells and extracts the contact can be indirect. Some entries that bind do so weakly or less than the wild type. For some assays here: Tags and fused reporters may be left off the sequences shown. Values belong to the molecule of their own block, whether it stands above or below them.

Sequences of proteins named here, by UniProt entry; tags and fusion partners are left off. A change or cut given only in a name is not applied to a line headed by its entry. A line that says so, or that is headed by a name, gives the form on record, which may keep a tag or linker.
UniProt P31946: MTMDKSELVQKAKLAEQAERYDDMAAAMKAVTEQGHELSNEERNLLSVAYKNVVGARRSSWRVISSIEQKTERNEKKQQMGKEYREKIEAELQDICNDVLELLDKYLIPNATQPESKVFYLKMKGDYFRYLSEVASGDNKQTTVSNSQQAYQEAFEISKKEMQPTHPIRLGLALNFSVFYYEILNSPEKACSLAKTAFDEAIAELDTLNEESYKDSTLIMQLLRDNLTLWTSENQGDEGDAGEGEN
HA-14-3-3β(C96, 191S) (P31946, form named): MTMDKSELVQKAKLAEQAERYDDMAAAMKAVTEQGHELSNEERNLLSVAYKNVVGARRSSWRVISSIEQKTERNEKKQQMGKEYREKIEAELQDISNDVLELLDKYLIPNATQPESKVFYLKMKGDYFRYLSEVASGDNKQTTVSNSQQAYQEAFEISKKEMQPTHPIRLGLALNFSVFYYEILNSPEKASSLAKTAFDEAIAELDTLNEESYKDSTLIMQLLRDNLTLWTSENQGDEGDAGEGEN

Key:
Trx1-His (human) [1] = target: T1, Trx1-His (human) (UniProt P10599); assay: pull-down; purified Trx1-His incubated with lysate of HEK293 cells overexpressing HA-14-3-3β for 1 h, Ni-NTA beads 1 h, immunoblot anti-HA / anti-His; only the target purified
T1 sequence: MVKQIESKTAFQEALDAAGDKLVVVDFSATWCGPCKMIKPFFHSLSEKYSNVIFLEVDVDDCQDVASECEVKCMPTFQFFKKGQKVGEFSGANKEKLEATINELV

Trx1-His (human) [2] = target: T1, Trx1-His (human); assay: pull-down; competition: purified Trx1-His (5 μg) and lysate overexpressing HA-14-3-3β (5 μg) with 0, 1, 2 or 5 μg GST-SELENOW(U13C) for 2 h; glutathione or Ni-NTA beads 1 h; non-reducing SDS-PAGE, immunoblot anti-HA; only the target purified
[3] = target: HA-14-3-3β(C96, 191S) (human) (UniProt P31946); assay: co-IP; HEK293 cells transfected with HA-14-3-3β (WT or Cys mutants); extracts immunoprecipitated with anti-HA, immunoblotted with anti-Trx1; with or without H2O2 (200 μM, 30 min)
[4] = target: HA-14-3-3β(C191S) (human) (UniProt P31946); assay: as above
HA-14-3-3β (human) = HA-14-3-3β (human) (UniProt P31946); assay: as above
GST-14-3-3β (human) = GST-14-3-3β (human) (UniProt P31946); assay: pull-down; purified Trx1-His (WT, C32S or C35S) incubated with purified GST-14-3-3β, glutathione beads 1 h, immunoblot anti-His / anti-GST; 20 mM HEPES pH 7.5, 1 mM EDTA, 4 °C; both purified

Molecule: HA-14-3-3β (from UniProt P31946 1-246)
- binding (Trx1-His (human) [1]): binds
- binding (Trx1-His (human) [2]): binds

B2: Trx1(C35S)-His (protein, UniProt P10599 1-105)
chain: MVKQIESKTAFQEALDAAGDKLVVVDFSATWCGPSKMIKPFFHSLSEKYSNVIFLEVDVDDCQDVASECEVKCMPTFQFFKKGQKVGEFSGANKEKLEATINELV
- binding (GST-14-3-3β (human)): binds

B3: Trx1(C32S)-His (protein, UniProt P10599 1-105)
chain: MVKQIESKTAFQEALDAAGDKLVVVDFSATWSGPCKMIKPFFHSLSEKYSNVIFLEVDVDDCQDVASECEVKCMPTFQFFKKGQKVGEFSGANKEKLEATINELV
- binding (GST-14-3-3β (human)): no binding

The remaining lines, values ahead:

- binding [3]: no binding
- binding [4]: no binding
- binding (HA-14-3-3β (human)): binds
B1: Thioredoxin 1 (endogenous) (protein, UniProt P10599 1-105)
chain: MVKQIESKTAFQEALDAAGDKLVVVDFSATWCGPCKMIKPFFHSLSEKYSNVIFLEVDVDDCQDVASECEVKCMPTFQFFKKGQKVGEFSGANKEKLEATINELV

- binding (GST-14-3-3β (human)): binds
B4: Trx1-His (protein, UniProt P10599 1-105)
chain: MVKQIESKTAFQEALDAAGDKLVVVDFSATWCGPCKMIKPFFHSLSEKYSNVIFLEVDVDDCQDVASECEVKCMPTFQFFKKGQKVGEFSGANKEKLEATINELV
